22 molecules from the supplement of paper PMC4604168 (melanoma cell lines) can be followed below.

SMILES strings stand for the structures. Some of the results follow. Repeats are few or missing, and single values can be far off.
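Also: cell number obtained by counting DAPI-stained nuclei in high-throughput microscope images with image analysis software, screen run in 1,536-well plates.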

For the assay, the system named is SkMel2. As to the kind of experiment: cell count relative to DMSO control; melanoma cells; higher = more viable cells. As to conditions: library dose: low library concentration; 72 h.
Molecule `O=C(O)c1ccc2c(c1)nc(Nc1cccc(Cl)c1)c1ccncc12` + C[As](C)SC[C@H](NC(=O)CC[C@H](N)C(=O)O)C(=O)NCC(=O)O [Darinaparsin] (first compound 0.4 µM, partner dose 0.4 µM) had a cell count of 96%.
As for `CN1CCN(c2ccc3nc(-c4c(N)c5c(F)cccc5[nH]c4=O)[nH]c3c2)CC1` [Dovitinib] + C/C(O)=C(\C#N)C(=O)Nc1cc(Br)ccc1Br [LFM-A13] (first compound 0.1 µM, partner dose 2 µM), the figure is 105%; as for `O=C(O)c1ccc2c(c1)nc(Nc1cccc(Cl)c1)c1ccncc12` + Cc1cc(SCc2sc(-c3ccc(C(F)(F)F)c(F)c3)nc2C)ccc1OCC(=O)O [GW0742] (first compound 0.4 µM, partner dose 2 µM), 104%; as for `CN1CCN(c2ccc3nc(-c4c(N)c5c(F)cccc5[nH]c4=O)[nH]c3c2)CC1` [Dovitinib] + C[As](C)SC[C@H](NC(=O)CC[C@H](N)C(=O)O)C(=O)NCC(=O)O [Darinaparsin] (first compound 0.1 µM, partner dose 0.4 µM), 102%.
As for `Cc1cc(Nc2cc(N3CCN(C)CC3)nc(Sc3ccc(NC(=O)C4CC4)cc3)n2)n[nH]1` [Tozasertib] + N.N.[Cl][Pt][Cl] [cisplatin] (first compound 0.006 µM, partner dose 1.6 µM), the figure is 92%; as for `CN1CCN(c2ccc3nc(-c4c(N)c5c(F)cccc5[nH]c4=O)[nH]c3c2)CC1` [Dovitinib] + O=C(Oc1ccc([N+](=O)[O-])cc1)N1CCC(C(O)(c2ccc3c(c2)OCO3)c2ccc3c(c2)OCO3)CC1 [JZL184] (first compound 0.1 µM, partner dose 1 µM), 101%; as for `Clc1ccc(Nc2nnc(Cc3ccncc3)c3ccccc23)cc1` [vatalanib] + C/C(O)=C(\C#N)C(=O)Nc1cc(Br)ccc1Br [LFM-A13] (first compound 2 µM, partner dose 2 µM), 101%.
`CC(C)C[C@H](NC(=O)[C@H](Cc1ccccc1)NC(=O)c1cnccn1)B(O)O` [Bortezomib] + C[As](C)SC[C@H](NC(=O)CC[C@H](N)C(=O)O)C(=O)NCC(=O)O [Darinaparsin] (first compound 0.001 µM, partner dose 0.4 µM) yielded a cell count of 104%.
In the case of `Cc1cc(Nc2cc(N3CCN(C)CC3)nc(Sc3ccc(NC(=O)C4CC4)cc3)n2)n[nH]1` [Tozasertib] + Cn1cc(C2=C(c3cn(C4CCN(Cc5ccccn5)CC4)c4ccccc34)C(=O)NC2=O)c2ccccc21 [Enzastaurin] (first compound 0.006 µM, partner dose 0.8 µM) it was 98.4%; in that of `Cc1cc(Nc2cc(N3CCN(C)CC3)nc(Sc3ccc(NC(=O)C4CC4)cc3)n2)n[nH]1` [Tozasertib] + O=C(Oc1ccc([N+](=O)[O-])cc1)N1CCC(C(O)(c2ccc3c(c2)OCO3)c2ccc3c(c2)OCO3)CC1 [JZL184] (first compound 0.006 µM, partner dose 1 µM), 97.3%.
As for `C#Cc1cccc(Nc2ncnc3cc(OCCOC)c(OCCOC)cc23)c1` [erlotinib] + C[As](C)SC[C@H](NC(=O)CC[C@H](N)C(=O)O)C(=O)NCC(=O)O [Darinaparsin] (first compound 0.8 µM, partner dose 0.4 µM), the figure is 97.6%.
In the case of `Clc1ccc(Nc2nnc(Cc3ccncc3)c3ccccc23)cc1` [vatalanib] + O=C(Oc1ccc([N+](=O)[O-])cc1)N1CCC(C(O)(c2ccc3c(c2)OCO3)c2ccc3c(c2)OCO3)CC1 [JZL184] (first compound 2 µM, partner dose 1 µM) it was 106%.
`Nc1ccn([C@@H]2O[C@H](CO)[C@@H](O)C2(F)F)c(=O)n1` [gemcitabine] + C[As](C)SC[C@H](NC(=O)CC[C@H](N)C(=O)O)C(=O)NCC(=O)O [Darinaparsin] (first compound 0.0004 µM, partner dose 0.4 µM) had a cell count of 106%.
As for `CC(C)C[C@H](NC(=O)[C@H](Cc1ccccc1)NC(=O)c1cnccn1)B(O)O` [Bortezomib] + O=C(Oc1ccc([N+](=O)[O-])cc1)N1CCC(C(O)(c2ccc3c(c2)OCO3)c2ccc3c(c2)OCO3)CC1 [JZL184] (first compound 0.001 µM, partner dose 1 µM), the figure is 97.8%; as for `Nc1ccn([C@@H]2O[C@H](CO)[C@@H](O)C2(F)F)c(=O)n1` [gemcitabine] + C/C(O)=C(\C#N)C(=O)Nc1cc(Br)ccc1Br [LFM-A13] (first compound 0.0004 µM, partner dose 2 µM), 106%; as for `CC(C)C[C@H](NC(=O)[C@H](Cc1ccccc1)NC(=O)c1cnccn1)B(O)O` [Bortezomib] + C/C(O)=C(\C#N)C(=O)Nc1cc(Br)ccc1Br [LFM-A13] (first compound 0.001 µM, partner dose 2 µM), 85.2%.
In the case of `Nc1ccn([C@@H]2O[C@H](CO)[C@@H](O)C2(F)F)c(=O)n1` [gemcitabine] + O=C(Oc1ccc([N+](=O)[O-])cc1)N1CCC(C(O)(c2ccc3c(c2)OCO3)c2ccc3c(c2)OCO3)CC1 [JZL184] (first compound 0.0004 µM, partner dose 1 µM) it was 101%; in that of `Cc1cc(Nc2cc(N3CCN(C)CC3)nc(Sc3ccc(NC(=O)C4CC4)cc3)n2)n[nH]1` [Tozasertib] + C/C(O)=C(\C#N)C(=O)Nc1cc(Br)ccc1Br [LFM-A13] (first compound 0.006 µM, partner dose 2 µM), 98.4%; in that of `Cc1cc(Nc2cc(N3CCN(C)CC3)nc(Sc3ccc(NC(=O)C4CC4)cc3)n2)n[nH]1` [Tozasertib] + C[As](C)SC[C@H](NC(=O)CC[C@H](N)C(=O)O)C(=O)NCC(=O)O [Darinaparsin] (first compound 0.006 µM, partner dose 0.4 µM), 93.8%.
The molecule `O=C(O)c1ccc2c(c1)nc(Nc1cccc(Cl)c1)c1ccncc12` + O=C(Oc1ccc([N+](=O)[O-])cc1)N1CCC(C(O)(c2ccc3c(c2)OCO3)c2ccc3c(c2)OCO3)CC1 [JZL184] (first compound 0.4 µM, partner dose 1 µM) returned a cell count of 90.2%.
Molecule `Clc1ccc(Nc2nnc(Cc3ccncc3)c3ccccc23)cc1` [vatalanib] + C[As](C)SC[C@H](NC(=O)CC[C@H](N)C(=O)O)C(=O)NCC(=O)O [Darinaparsin] (first compound 2 µM, partner dose 0.4 µM) came in with a cell count of 95.1%.
In the case of `CC(C)C[C@H](NC(=O)[C@H](Cc1ccccc1)NC(=O)c1cnccn1)B(O)O` [Bortezomib] + N.N.[Cl][Pt][Cl] [cisplatin] (first compound 0.001 µM, partner dose 1.6 µM) it was 84.4%.
